In PubChem BioAssay AID2546 (National Center for Advancing Translational Sciences (NCATS), 2010):
Hit rate of the full screen: of about 310,000 compounds, about 11,000 (3.5%) were called active. Inconclusive means that the source gave no clear call. Such entries were picked first, then a sample of the others. The call rests on the fitted dose curve; in most records, active means well fitted inhibition curve with a large enough effect; inconclusive means small, poorly fitted or top-dose-only effect, or effect the other way; inactive means flat fitted curve, though single readings scatter. No potency is given beside an inconclusive call; the fits are too rough.
On the % scale 0 is the no-effect control and ±100 the full control effect; potency means the concentration at half of the fitted maximal effect; tags describe the fitted curve by direction and shape.

Test: VP16 counterscreen qHTS for inhibitors of ROR gamma transcriptional activity;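 further: Gal4-VP16 expression switched on by copper sulfate through the metallothionein promoter; nearly all actives have a fitted effect of over 50% in size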
Conditions: Drosophila S2 Gal4-VP16 UAS-luciferase, luminescence, 20 h; activity, negative = inhibition: at 53.6 µM (top of the series)
In the case of `O=S(=O)(Nc1ccc(N=Nc2ccccc2)cc1)c1ccccc1`, the Potency was inconclusive [inhibitor, single point]. With `FC(F)(F)c1cnc(NNC(=S)Nc2ccc(Cl)cc2)c(Cl)c1` the Potency was active: 7.94 µM. In the case of `COc1ccc(-c2noc(CCC(=O)Nc3cccnc3)n2)cc1`, the “activity, negative = inhibition” value was inactive: -11%. With `Cc1ccc(/C=C/C(=O)N2CCCC(C)C2)cc1` (configuration not stated) the Potency was inconclusive [inhibitor, single point]. In the case of `CC1(C)Cc2c(sc(NC(=S)NC(=O)c3ccccc3)c2C(=O)O)CO1`, the “activity, negative = inhibition” value was inactive: 1.05%. In the case of `Cc1ccc(NS(=O)(=O)c2c(C)nc3sccn3c2=O)cc1C`, the “activity, negative = inhibition” value was inactive: 0.471%. In the case of `C/C(=N\NC(=S)NCc1ccccc1)c1ccc(C)o1`, the Potency was active: 7.08 µM. For `CS(=O)(=O)c1ccc(C(=O)N(CCc2ccccc2)Cc2ccccc2)cc1`, the “activity, negative = inhibition” value was inactive: -0.46%. For `O=C(N/N=C/c1cccc2cccnc12)c1ccccc1O`, the Potency was active: 0.794 µM. In the case of `CCCOc1ccc2oc(=O)c3c(c2c1)CCCN3C(=O)CN1CCCC(C(=O)OCC)C1` (configuration not stated), the Potency was inconclusive [inhibitor, single point]. In the case of `CCC1CCCCN1S(=O)(=O)c1ccc(NC(=O)c2ccncc2)cc1` (configuration not stated), the Potency was inconclusive [inhibitor, single point]. For `COC(=O)Oc1ccc(/C=N/NC(=O)CSCc2ccccc2Br)cc1OC`, the Potency was active: 12.6 µM. For `COc1ccc(CC2(C)OC(c3ccc(Cl)cc3)=NN2C(C)=O)cc1` (configuration not stated), the Potency was inconclusive [activator, single point]. With `Cc1ccccc1-n1c(-c2ccoc2C)n[nH]c1=S` the Potency was inconclusive [inhibitor, single point]. For `CCCc1cc(C(=O)Nc2cccc(Cl)c2)no1`, the Potency was inconclusive [activator, full curve, poor fit]. For `O=C(N/N=C\c1ccc(Cl)cc1)C1=NOC2COC3(CCN(c4ccc([N+](=O)[O-])cc4)CC3)OCC12` (configuration not stated), the Potency was inconclusive [inhibitor, full curve]. For `C=CCOC(=O)C(C(C)=O)C(NC(=O)OC)c1ccc(Cl)cc1` (configuration not stated), the activity, negative = inhibition was inactive: 5.83% [at 10 µM]. With `COc1ccccc1[C@@H]1C(c2ccc(F)cc2)=NN(c2ccc(Br)cc2)[C@H]1C(=O)N1CCOC1=O` the “activity, negative = inhibition” value was inactive: 3.21% [at 40.7 µM]. For `CCC(=O)C1CCCN(C(=O)c2ccc(OC3CCN(C(=O)c4cccnc4)CC3)cc2)C1` (configuration not stated), the Potency was inconclusive [inhibitor, partial curve, poor fit]. For `COc1cc2nc(SCC(=O)c3ccc(Br)cc3)n3nc(C)nc3c2cc1OC`, the Potency was inconclusive [inhibitor, partial curve]. With `Cc1cc(N/N=C/c2ccc(Cl)cc2)nc(NCc2ccccc2)n1` the Potency was inconclusive [inhibitor, single point]. In the case of `O=C(Nc1ccccc1)N1CCCC2(CCN(C(=O)c3cnccn3)CC2)C1`, the “activity, negative = inhibition” value was inactive: 0.907%. In the case of `C=CCC(Nc1ccco1)c1ccccc1` (configuration not stated), the Potency was active: 17.8 µM. In the case of `FC(F)Sc1ccc(NC(=S)NCc2ccccc2)cc1`, the Potency was inconclusive [inhibitor, single point]. In the case of `CCCNC(=O)COC(=O)/C=C/c1cccc(F)c1`, the “activity, negative = inhibition” value was inactive: 2.67%. In the case of `Cc1ccc(NC(=O)c2cc3ccccc3o2)cc1S(=O)(=O)N(C)C`, the Potency was inconclusive [inhibitor, single point]. In the case of `COc1ccc(CNC(=S)NC(C)CCc2ccccc2)cc1` (configuration not stated), the Potency was active: 14.1 µM. With `COc1ccccc1OCCCC(=O)Nc1ccc2c(c1)OCCO2` the “activity, negative = inhibition” value was inactive: 14.8%. For `O=C(Cc1cccs1)N/N=C\c1ccc([N+](=O)[O-])s1`, the Potency was inconclusive [inhibitor, single point]. In the case of `CC1C(=O)C(C)C(c2ccc(Br)cc2)NC1c1ccc(Br)cc1` (configuration not stated), the “activity, negative = inhibition” value was inactive: 2%. For `COc1ccc(-c2nn(CCC#N)cc2/C=N/O)cc1OC`, the “activity, negative = inhibition” value was inactive: -2.42%. In the case of `Nc1nonc1-n1nnc(C(=O)N/N=C/c2ccco2)c1CSc1ccccc1`, the “activity, negative = inhibition” value was inactive: -5.28%. In the case of `COc1ccc(OC)c(CCNC(=O)Cn2nc(C)c3c(C)n(-c4ccc(C)cc4)nc3c2=O)c1`, the Potency was inconclusive [inhibitor, single point]. For `CC(=O)Nc1cccc(Oc2nc(-c3ccccn3)nc3ccccc23)c1`, the Potency was inconclusive [inhibitor, single point]. With `O=C(CN1C(=O)c2cccnc2Oc2ccc(Cl)cc21)N1CCOCC1` the “activity, negative = inhibition” value was inactive: -5.06%. With `O=C1N/C(=C\c2nc3ccccc3s2)c2ccccc21` the “activity, negative = inhibition” value was inactive: -14.1%. In the case of `Cn1c(SCCCC(=O)c2ccc(Br)cc2)nnc1-c1ccncc1`, the Potency was inconclusive [inhibitor, single point]. With `CC(C)c1ccc(-c2cc(C(=O)N3N=C(C(F)F)CC3(O)C(F)F)c3ccccc3n2)cc1` (configuration not stated) the Potency was inconclusive [inhibitor, single point]. In the case of `CCOC(=O)c1ccc(NC(=O)c2nc[nH]c2C(=O)N[C@@H](C)C(=O)OC(C)(C)C)cc1`, the “activity, negative = inhibition” value was inactive: -4.03%. With `O=C1OCCC1Sc1nnc(-c2ccccc2Br)n1Cc1ccccc1` (configuration not stated) the “activity, negative = inhibition” value was inactive: -4.7%. In the case of `COc1ccc(Cl)cc1N1C(=NC(=O)C2CCCO2)SC2CS(=O)(=O)CC21` (configuration not stated), the “activity, negative = inhibition” value was inactive: 12.5%. In the case of `Cc1ccc(S(=O)(=O)CC(=O)N2CCCC2)cc1`, the Potency was inconclusive [activator, single point]. With `O=S1(=O)CC(O)C(N2CCC(c3ccccc3)CC2)C1` (configuration not stated) the activity, negative = inhibition was inactive: -10.3% [at 0.365 µM]. For `CCOC(=O)c1oc2ccc(/C=N/O)c(Cl)c2c1C`, the Potency was active: 3.16 µM. For `Cc1nn(C)c(C(=O)N/N=C/c2ccc(-c3ccccc3)cc2)c1Cl`, the Potency was active: 11.2 µM. In the case of `CC(C)NC(=O)/C(C#N)=C\c1ccc(N(C)C)c(Br)c1`, the Potency was inconclusive [activator, full curve, poor fit]. For `COc1ccc(S(=O)(=O)c2cnc3ccc(OC)cc3c2N2CCC3(CC2)OCCO3)cc1`, the Potency was inconclusive [activator, single point]. With `COc1ccccc1OCCCCCc1c(C)n[nH]c1C` the Potency was inconclusive [inhibitor, single point]. For `CCCn1c(/C=C/c2ccco2)nc2ccccc21`, the Potency was inconclusive [inhibitor, single point]. For `CCc1ccc(Nc2n[n+](-c3ccccc3)c(-c3ccc(OCc4ccccc4)cc3)s2)cc1`, the Potency was inconclusive [inhibitor, single point]. For `CC(=O)NCCNc1ncnc2ccc(-c3c(C)noc3C)cc12`, the Potency was inconclusive [activator, partial curve]. For `O=NNc1nc2ccccc2n1Cc1ccccc1`, the Potency was active: 2.82 µM. With `S=C(NCc1cccc(Cl)c1)NC1CCCCC1` the Potency was active: 14.1 µM. In the case of `O=C(NCc1ccco1)C1CC(c2ccccc2C(F)(F)F)=NO1` (configuration not stated), the “activity, negative = inhibition” value was inactive: 21.6%. For `CN1C(=O)[C@H](Cc2ccc([N+](=O)[O-])cc2)NC1=S`, the Potency was inconclusive [inhibitor, partial curve]. With `Cc1cc(Cl)ccc1NC(=S)N1CCN(C(=O)C2CCCO2)CC1` (configuration not stated) the Potency was inconclusive [inhibitor, partial curve, poor fit]. In the case of `O=[N+]([O-])c1nn(-c2ccc3c(c2)OCCO3)n(O)c1=NC1CCN(Cc2ccccc2)CC1`, the Potency was inconclusive [activator, partial curve]. In the case of `O=C(NNc1nc(-c2ccccc2)cs1)c1ccc(F)cc1`, the Potency was active: 11.2 µM. For `O=C(Nc1nc(-c2cc3ccccc3o2)cs1)c1ccc(S(=O)(=O)N2CCCC2)cc1`, the Potency was active: 7.94 µM. With `Nc1ccc2c(c1)OCCOCCOCCOCCOCCO2` the “activity, negative = inhibition” value was inactive: -11.1%. With `COc1ccc(OC)c(C2(O)CSC(=Nc3cccnc3)N2Cc2ccco2)c1` (configuration not stated) the Potency was inconclusive [inhibitor, single point]. In the case of `O=C(O)CCc1ccc(-c2cccs2)n1NC(=O)c1ccccc1Br`, the activity, negative = inhibition was inactive: -5.41% [at 0.365 µM]. With `Cc1cc(NCCCO)n2c(nc3ccccc32)c1C#N` the “activity, negative = inhibition” value was inactive: -14.1%. For `CC(c1ccccc1)N1C(=O)/C(=C/c2ccncc2)SC1=S` (configuration not stated), the Potency was active: 15.8 µM. For `Cc1nc(Nc2nc(CSc3nc4ccccc4[nH]3)cc(=O)[nH]2)nc2ccccc12`, the Potency was inconclusive [inhibitor, single point]. In the case of `COc1ccc(-c2noc(C3CCCN(C(=O)c4ccccc4C)C3)n2)cc1` (configuration not stated), the Potency was inconclusive [inhibitor, single point]. In the case of `CCC(=O)Oc1ccc(C/C(=N\O)c2ccc(O)cc2O)o1`, the Potency was inconclusive [inhibitor, single point]. In the case of `CC1=CC2(O)OCCN(CCO)C2=CC1=O` (configuration not stated), the Potency was active: 15.8 µM. With `CC(C)Cn1c(-c2csc3ccccc23)n[nH]c1=S` the Potency was active: 6.31 µM. In the case of `COc1ccc2nc(NC(=O)c3cc(C)oc3C)sc2c1`, the Potency was inconclusive [inhibitor, single point]. For `CCN(CCCCO)c1nc(C)nc2c1c(C)c(C)n2-c1c(C)cc(C)cc1C`, the Potency was inconclusive [inhibitor, single point]. With `COc1ccc(-n2c(C)c(C(C)=O)c(C(C)=O)c2C)cc1OC` the “activity, negative = inhibition” value was inactive: -1.52%. For `O=C(O)CCn1cc(/C=C/C(=O)c2ccc(Cl)cc2)c(-c2ccc(Br)cc2)n1`, the Potency was inconclusive [inhibitor, single point]. For `COc1cc(NS(=O)(=O)c2cccc([N+](=O)[O-])c2)c2ncccc2c1`, the Potency was active: 2 µM. With `CC(C)c1ccc(/C=C/C(=O)NC(=S)NN2CCOCC2)cc1` the Potency was active: 4.47 µM. With `COc1cc(CNn2cn[nH]c2=S)cc(Cl)c1OCc1ccc(F)cc1` the Potency was active: 3.98 µM. With `CCc1c(C#N)c(SCc2c(C)noc2C)nc2c1C(=O)CC(C)(C)C2` the Potency was inconclusive [inhibitor, single point].
